# According to PubChem BioAssay (Tox21):
# “And” between values parts separate entries of the source, which are not always exact repeats. Equal entries are not always repeated. Inconclusive means that the source gave no clear call. Such entries were picked first, then a sample of the others. For some assays here: Potencies of inconclusive entries are doubtful fits and often do not repeat. A structure can be active in one record and inactive in another. The source made the active and inactive calls. Unless noted, calls come from the whole dose curve; as a rule, active = well fitted curve in the direction sought with a large enough effect in the repeat runs; inconclusive = weak or mixed curves; inactive = no such curve, though single readings can be large; an effect the other way counts as inactive or inconclusive.
# Legend:
# [1] = qHTS assay to identify small molecule antagonists of the androgen receptor (AR) signaling pathway using the MDA cell line - cell viability counter screen (AID 743041; note: potency is the fitted concentration of half-maximal effect; nearly all actives have a fitted effect of over 45% in size); settings: MDA-kb2 viability, CellTiter-Fluor, 16 h, cells co-treated with R1881 androgen agonist; viability change, negative = cytotoxic: at 70.3 µM (top of the series) unless noted
# Procedure, shortened: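 MDA-kb2 AR-luc human breast carcinoma cells (MMTV-luciferase, AR/GR responsive) were treated with compounds plus R1881 agonist for 16 h at 37 °C. Viability was read as CellTiter-Fluor fluorescence in the same wells as the reporter assay.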
# [2] = biological target: Estrogen receptor (Homo sapiens) (UniProt P03372); assay: qHTS assay to identify small molecule antagonists of the estrogen receptor alpha (ER-alpha) signaling pathway (AID 743069; active = well fitted curve in the direction sought with a large enough effect in the signal ratio in the repeat runs, not every such curve was filed as active; inconclusive = weak or mixed curves, or effect the other way; inactive = no such curve, though single readings can be large or run the other way; the % refers to the signal ratio; note: potency is the fitted concentration of half-maximal effect; for activity, negative = inhibition: % is set by controls: 0 for no effect and ±100 for the full control effect); settings: HEK293 ER-alpha-UAS-bla, beta-lactamase ratio, antagonist mode; activity, negative = inhibition: at 69.4 µM (top of the series)
# Chain of UniProt P03372 (P03372 whole entry, looked up): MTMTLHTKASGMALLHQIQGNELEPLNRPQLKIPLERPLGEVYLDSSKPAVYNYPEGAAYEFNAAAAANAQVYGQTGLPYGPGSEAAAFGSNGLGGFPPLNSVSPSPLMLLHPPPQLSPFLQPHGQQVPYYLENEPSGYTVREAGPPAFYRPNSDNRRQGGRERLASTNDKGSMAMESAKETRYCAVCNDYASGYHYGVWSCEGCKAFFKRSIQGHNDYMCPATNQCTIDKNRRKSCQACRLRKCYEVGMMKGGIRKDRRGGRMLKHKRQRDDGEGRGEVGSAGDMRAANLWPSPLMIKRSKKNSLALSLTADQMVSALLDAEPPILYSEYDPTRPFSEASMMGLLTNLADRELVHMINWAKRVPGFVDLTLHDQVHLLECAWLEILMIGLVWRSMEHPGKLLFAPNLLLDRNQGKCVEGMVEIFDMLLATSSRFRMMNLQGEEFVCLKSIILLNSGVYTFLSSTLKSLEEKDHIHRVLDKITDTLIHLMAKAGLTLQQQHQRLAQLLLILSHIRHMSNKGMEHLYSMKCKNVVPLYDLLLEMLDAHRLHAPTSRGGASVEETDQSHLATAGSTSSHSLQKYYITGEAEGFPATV
# Procedure, shortened: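 HEK293 cells stably carrying an ER-alpha-UAS-bla beta-lactamase reporter were pre-cultured overnight in 2% charcoal-stripped FBS medium. Test compounds in DMSO were added together with 17beta-estradiol for 18 hr at 37C. Read-out was fluorescence after 2 hr with LiveBLAzer B/G FRET substrate at room temperature.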
# [3] = qHTS assay to identify aromatase inhibitors - cell viability counter screen (AID 743084);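 note: cells stimulated with testosterone during compound exposure; potency is the fitted concentration of half-maximal effect; nearly all actives have a fitted effect of over 55% in size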
# [4] = biological target: Peroxisome proliferator-activated receptor gamma (Homo sapiens) (UniProt P37231); assay: qHTS assay to identify small molecule agonists of the peroxisome proliferator-activated receptor gamma (PPARg) signaling pathway (AID 743094; active = well fitted activation curve with a large enough effect in the signal ratio in the repeat runs, not every such curve was filed as active; inconclusive = weak or mixed curves, or effect the other way; inactive = no such curve, though single readings can be large or run the other way; the % refers to the signal ratio; note: potency is the fitted concentration of half-maximal effect; for activation: % is set by controls: 0 for no effect and ±100 for the full control effect); settings: HEK293H PPARg-UAS-bla, beta-lactamase FRET ratio, 17 h; activation: at 57 µM (top of the series) unless noted
# Chain of UniProt P37231 (P37231 whole entry, looked up): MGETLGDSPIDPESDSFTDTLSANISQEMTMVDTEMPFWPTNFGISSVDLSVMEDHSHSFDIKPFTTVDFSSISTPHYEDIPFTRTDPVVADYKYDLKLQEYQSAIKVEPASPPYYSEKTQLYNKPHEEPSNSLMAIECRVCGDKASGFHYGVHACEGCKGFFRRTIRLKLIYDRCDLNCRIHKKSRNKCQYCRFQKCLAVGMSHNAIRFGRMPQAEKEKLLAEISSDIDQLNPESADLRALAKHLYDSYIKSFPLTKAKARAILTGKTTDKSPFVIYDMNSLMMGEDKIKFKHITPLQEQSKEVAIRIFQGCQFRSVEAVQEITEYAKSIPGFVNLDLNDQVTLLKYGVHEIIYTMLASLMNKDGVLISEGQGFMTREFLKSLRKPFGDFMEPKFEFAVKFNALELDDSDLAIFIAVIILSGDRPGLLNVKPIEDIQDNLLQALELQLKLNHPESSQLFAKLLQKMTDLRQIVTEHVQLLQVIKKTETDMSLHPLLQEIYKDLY
# Procedure, shortened: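 GeneBLAzer PPARg UAS-bla HEK293H cells were plated, rested 5 h, then exposed to compounds for 17 h at 37C. Beta-lactamase activity was read by LiveBLAzer B/G FRET substrate fluorescence after 1 h at room temperature.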
# [5] = biological target: Peroxisome proliferator-activated receptor gamma (Homo sapiens) (UniProt P37231); assay: qHTS assay to identify small molecule antagonists of the peroxisome proliferator-activated receptor gamma (PPARg) signaling pathway (AID 743191; calls by dose curve; note: nearly all actives have a fitted effect of over 30% in size; note: potency is the fitted concentration of half-maximal effect; for ratio activity, negative = inhibition: % is set by controls: 0 for no effect and ±100 for the full control effect); settings: HEK293H PPARg-UAS-bla, beta-lactamase ratio, antagonist, 17 h; ratio activity, negative = inhibition: at 62.6 µM (top of the series) unless noted
# Procedure, shortened: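 GeneBLAzer PPARg UAS-bla HEK293H cells carrying a UAS-driven beta-lactamase reporter were plated at 3000 cells/well, preincubated 5 h at 37C, then given compound for 17 h at 37C; LiveBLAzer B/G FRET substrate was read after 1 h at room temperature.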
# [6] = qHTS assay to identify small molecule antagonists of the estrogen receptor alpha (ER-alpha) signaling pathway - cell viability counter screen (AID 743074; calls by dose curve; note: potency is the fitted concentration of half-maximal effect; nearly all actives have a fitted effect of over 45% in size)
# [7] = qHTS assay to identify small molecule antagonists of the estrogen receptor alpha (ER-alpha) signaling pathway using the BG1 cell line - cell viability counter screen (AID 743081);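 note: compound given together with 17beta-estradiol as the ER stimulus; potency is the fitted concentration of half-maximal effect; nearly all actives have a fitted effect of over 45% in size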
# [8] = biological target: Androgen receptor (Homo sapiens) (UniProt P10275); assay: qHTS assay to identify small molecule antagonists of the androgen receptor (AR) signaling pathway using the MDA cell line (AID 743042; note: potency is the fitted concentration of half-maximal effect; nearly all actives have a fitted effect of over 55% in size)
# Chain of UniProt P10275 (P10275 whole entry, looked up): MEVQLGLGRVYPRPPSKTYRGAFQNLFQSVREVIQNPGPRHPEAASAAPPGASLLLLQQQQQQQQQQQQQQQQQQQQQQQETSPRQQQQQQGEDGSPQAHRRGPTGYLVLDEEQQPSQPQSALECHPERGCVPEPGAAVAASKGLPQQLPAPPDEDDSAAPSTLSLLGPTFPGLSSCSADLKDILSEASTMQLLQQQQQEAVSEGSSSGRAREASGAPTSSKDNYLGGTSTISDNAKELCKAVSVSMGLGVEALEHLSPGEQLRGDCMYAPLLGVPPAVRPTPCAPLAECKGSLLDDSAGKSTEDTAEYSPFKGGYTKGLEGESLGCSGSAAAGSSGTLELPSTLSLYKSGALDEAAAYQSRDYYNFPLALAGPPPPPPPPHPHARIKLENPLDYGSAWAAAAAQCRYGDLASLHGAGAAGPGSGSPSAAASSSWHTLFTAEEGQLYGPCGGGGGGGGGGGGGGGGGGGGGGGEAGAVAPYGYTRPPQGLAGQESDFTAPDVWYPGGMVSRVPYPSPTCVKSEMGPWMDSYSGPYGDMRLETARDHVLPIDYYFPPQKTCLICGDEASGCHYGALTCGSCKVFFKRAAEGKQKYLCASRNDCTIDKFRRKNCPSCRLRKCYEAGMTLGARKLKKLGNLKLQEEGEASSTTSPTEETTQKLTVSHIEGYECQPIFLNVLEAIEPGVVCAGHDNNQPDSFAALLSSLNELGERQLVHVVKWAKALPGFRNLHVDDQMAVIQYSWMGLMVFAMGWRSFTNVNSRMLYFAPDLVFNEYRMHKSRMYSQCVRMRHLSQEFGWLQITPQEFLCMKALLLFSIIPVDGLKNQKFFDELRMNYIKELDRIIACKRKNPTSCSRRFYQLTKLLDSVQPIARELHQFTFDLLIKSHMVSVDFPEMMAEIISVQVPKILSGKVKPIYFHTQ
# Procedure, shortened: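 MDA-kb2 cells (human breast carcinoma, stably carrying an MMTV-luciferase reporter responsive to AR and GR) were plated at 3,000 cells/well and preincubated 5 hr at 37C, then given compound plus R1881 agonist for 16 h. ONE-Glo luminescence was read.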
# [9] = qHTS assay to identify small molecule antagonists of the thyroid receptor (TR) signaling pathway - cell viability counter screen (AID 743064); settings: GH3.TRE-Luc viability, CellTiter-Fluor, 24 h; activity change, negative = cytotoxic: at 70.3 µM (top of the series); note: potency is the fitted concentration of half-maximal effect; nearly all actives have a fitted effect of over 50% in size
# Procedure, shortened: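 Rat GH3 pituitary tumor cells stably expressing two TR response elements driving luciferase were plated, rested 4 h, then dosed with library compounds and T3 (1 nM final). After 23.5 h at 37 °C, CellTiter-Fluor was added for 30 min and fluorescence recorded.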
# [10] = tested on: thyroid hormone receptor (rat, GH3 cells); assay: qHTS assay to identify small molecule agonists of the thyroid receptor (TR) signaling pathway (AID 743066; calls by dose curve; note: potency is the fitted concentration of half-maximal effect); settings: GH3.TRE-Luc cells, TR agonist luciferase, 24 h; activation: at 83.9 µM (top of the series) unless noted
# [11] = biological target: Estrogen receptor (Homo sapiens) (UniProt P03372); assay: qHTS assay to identify small molecule agonists of the estrogen receptor alpha (ER-alpha) signaling pathway using the BG1 cell line (AID 743079); settings: BG1Luc4E2 cells, ERE-luciferase agonist, 22 h; activation: at 70.3 µM (top of the series) unless noted; note: nearly all actives have a fitted effect of over 20% in size; note: potency is the fitted concentration of half-maximal effect; for activation: % is set by controls: 0 for no effect and ±100 for the full control effect
# [12] = biological target: Aromatase (Homo sapiens) (UniProt P11511); assay: qHTS assay to identify aromatase inhibitors (AID 743083); note: potency is the fitted concentration of half-maximal effect; nearly all actives have a fitted effect of over 55% in size
# Chain of UniProt P11511 (P11511 whole entry, looked up): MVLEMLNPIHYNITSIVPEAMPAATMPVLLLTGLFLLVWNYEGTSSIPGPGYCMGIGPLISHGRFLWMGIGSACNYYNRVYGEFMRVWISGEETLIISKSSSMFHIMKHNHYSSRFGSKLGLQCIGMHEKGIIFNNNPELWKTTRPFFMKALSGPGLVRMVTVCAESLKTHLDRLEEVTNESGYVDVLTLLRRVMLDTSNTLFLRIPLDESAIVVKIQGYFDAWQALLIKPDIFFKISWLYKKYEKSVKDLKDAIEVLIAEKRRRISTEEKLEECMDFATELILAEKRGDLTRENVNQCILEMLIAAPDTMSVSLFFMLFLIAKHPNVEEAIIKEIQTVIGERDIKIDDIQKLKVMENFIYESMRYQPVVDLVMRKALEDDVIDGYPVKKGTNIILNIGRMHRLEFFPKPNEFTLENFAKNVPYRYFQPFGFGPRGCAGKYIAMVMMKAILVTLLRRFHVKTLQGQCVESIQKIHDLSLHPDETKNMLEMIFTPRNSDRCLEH
# [13] = qHTS assay to identify small molecule that activate the aryl hydrocarbon receptor (AhR) signaling pathway - cell viability counter screen (AID 743086); note: potency is the fitted concentration of half-maximal effect; nearly all actives have a fitted effect of over 45% in size
# Procedure, shortened: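 HepG2-AhR-luc (HG2L7.5c1) cells, 4000/well, were preincubated 5 h at 37C, exposed to compound in qHTS format for 24 hr at 37C, then given CellTiter-Fluor for 30 min; viability was read as fluorescence in the reporter wells.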
# [14] = qHTS assay to identify small molecule antagonists of the thyroid receptor (TR) signaling pathway (AID 743065); note: potency is the fitted concentration of half-maximal effect; nearly all actives have a fitted effect of over 55% in size
# Procedure, shortened: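 GH3.TRE-Luc rat pituitary cells carrying two TR response elements driving luciferase were plated for 4 h, given compound plus 1 nM T3 (final), and incubated 23.5 h at 37 C. ONE-Glo luminescence measured reporter inhibition; CellTiter-Fluor fluorescence tracked cytotoxicity.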
# [15] = qHTS assay to identify small molecule antagonists of the estrogen receptor alpha (ER-alpha) signaling pathway using the BG1 cell line (AID 743080; calls by dose curve;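 note: BG1 cells stimulated with 17beta-estradiol alongside compound; % is set by controls: 0 for no effect and ±100 for the full control effect; nearly all actives have a fitted effect of over 25% in size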); settings: BG1Luc4E2 ERE-luciferase antagonist mode, luminescence; activity change, negative = inhibition: at 70.3 µM (top of the series) unless noted
# Procedure, shortened: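 Readout is ONE-Glo luminescence, taken 30 min at room temperature after reagent addition, preceded by a CellTiter-Fluor viability read; BG1-Luc-4E2 cells had received compound and 17beta-estradiol for 21.5 h at 37 C.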
# [16] = biological target: Aryl hydrocarbon receptor (Homo sapiens) (UniProt P35869); assay: qHTS assay to identify small molecule that activate the aryl hydrocarbon receptor (AhR) signaling pathway (AID 743085); note: potency is the fitted concentration of half-maximal effect; nearly all actives have a fitted effect of over 15% in size
# Chain of UniProt P35869 (P35869 whole entry, looked up): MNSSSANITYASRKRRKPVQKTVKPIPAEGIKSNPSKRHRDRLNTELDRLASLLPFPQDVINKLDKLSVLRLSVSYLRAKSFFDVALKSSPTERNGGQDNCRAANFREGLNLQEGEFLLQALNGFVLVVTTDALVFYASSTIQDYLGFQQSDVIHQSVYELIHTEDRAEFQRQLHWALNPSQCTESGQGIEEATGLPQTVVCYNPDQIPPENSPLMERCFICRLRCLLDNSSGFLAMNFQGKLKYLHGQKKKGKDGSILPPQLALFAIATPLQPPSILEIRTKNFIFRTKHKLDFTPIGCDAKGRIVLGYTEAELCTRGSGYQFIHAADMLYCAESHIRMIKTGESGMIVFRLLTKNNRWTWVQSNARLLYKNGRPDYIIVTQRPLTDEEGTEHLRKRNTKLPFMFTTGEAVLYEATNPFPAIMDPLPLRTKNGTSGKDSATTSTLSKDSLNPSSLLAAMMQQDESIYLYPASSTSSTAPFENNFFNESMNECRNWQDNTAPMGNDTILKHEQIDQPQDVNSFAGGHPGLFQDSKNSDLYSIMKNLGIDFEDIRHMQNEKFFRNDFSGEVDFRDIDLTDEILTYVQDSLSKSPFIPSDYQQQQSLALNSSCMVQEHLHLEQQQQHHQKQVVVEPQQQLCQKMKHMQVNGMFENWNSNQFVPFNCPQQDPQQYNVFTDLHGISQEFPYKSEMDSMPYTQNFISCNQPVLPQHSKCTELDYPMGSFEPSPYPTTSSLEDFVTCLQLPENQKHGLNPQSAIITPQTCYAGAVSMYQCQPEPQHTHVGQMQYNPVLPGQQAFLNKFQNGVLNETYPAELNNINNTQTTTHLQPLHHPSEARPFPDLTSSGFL
# Procedure, shortened: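 Compounds were tested in HepG2 hepatocellular carcinoma cells harbouring a stably integrated luciferase gene under control of 20 DREs. Increased reporter signal after 24 h treatment at 37C was taken as AhR activation.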
# Tags give direction and shape of the fitted curve or compound fluorescence and quenching.
smiles,measurement,setting,value
N#CCCC(Br)(C#N)CBr (stereo unspecified),Potency,[1],inconclusive: 68.6 µM [cytotoxic]
same,Potency,[2],inactive
same,Potency,[3],active: 27.3 µM
same,Potency,[4],inconclusive: 61.6 µM [single point]
same,Potency,[5],"inconclusive: 49 µM [rising, partial curve]"
CO/N=C(\C(=O)OC)c1ccccc1CO/N=C(\C)c1cccc(C(F)(F)F)c1,Potency,[1],active: 5.45 µM
same,Potency,[6],"inconclusive: 0.616 µM [cytotoxic, full curve, poor fit]"
same,Potency,[7],"inconclusive: 38.6 µM [cytotoxic, partial curve]"
same,Potency,[3],"inconclusive: 68.6 µM [cytotoxic, single point]"
same,Potency,[4],"inconclusive: 4.9 µM [rising, full curve]"
same,Potency,[5],"inconclusive: 49 µM [rising, single point]"
COc1cccc(C(=O)CCN[C@@H](C)[C@H](O)c2ccccc2)c1,Potency,[8],"inconclusive: 13.3 µM [inhibitor, partial curve, poor fit]"
same,Potency,[9],active: 13.3 µM
same,Potency,[10],"inconclusive: 33.5 µM [inhibitor, partial curve, poor fit]"
same,Potency,[7],"inconclusive: 5.31 µM [cytotoxic, partial curve, poor fit]"
same,Potency,[5],inactive
ClC1=C(Cl)C2(Cl)C3C(Cl)C=CC3C1(Cl)C2(Cl)Cl (stereo unspecified),Potency,[1],"inconclusive: 61.1 µM [rising, single point]"
same,Potency,[9],active: 30.8 µM and active: 54.5 µM
same,Potency,[11],"inactive and inconclusive: 21.7 µM [activator, partial curve]"
same,Potency,[3],"inconclusive: 68.6 µM [cytotoxic, single point]"
same,Potency,[4],"inconclusive: 17.5 µM [rising, partial curve, poor fit]"
same,Potency,[5],"inconclusive: 43.8 µM [cytotoxic, partial curve, poor fit]"
same,"ratio activity, negative = inhibition",[5],inconclusive: 6.11%
CCCCCCCCCCCCCCCC[N+](C)(C)C,Potency,[1],"inconclusive: 27.8 µM [cytotoxic, single point] and inconclusive: 29.5 µM [cytotoxic, single point] and active: 61.1 µM"
same,Potency,[9],active: 9.44 µM and active: 20.9 µM and active: 13.7 µM
same,Potency,[6],active: 21.3 µM and active: 4.72 µM and active: 49 µM
same,Potency,[12],active: 16.8 µM and active: 11.8 µM and active: 30.6 µM
same,Potency,[3],"inconclusive: 29.8 µM [cytotoxic, partial curve] and active: 29.5 µM and active: 68.6 µM"
same,Potency,[13],active: 68.6 µM
same,Potency,[4],inconclusive: 61.6 µM [cytotoxic]
same,activation,[4],inconclusive: -14.5% and inconclusive: -15.2%
same,Potency,[5],"inconclusive: 29.8 µM [cytotoxic] and inconclusive: 54.9 µM [cytotoxic] and inconclusive: 26.6 µM [inhibitor, partial curve]"
CCC[CH2][Sn]([CH2]CCC)([CH2]CCC)[CH2]CCC,Potency,[1],active: 61.1 µM
same,Potency,[10],"inconclusive: 3.44 µM [activator, partial curve]"
same,Potency,[6],"inconclusive: 3.89 µM [cytotoxic, full curve, poor fit]"
same,Potency,[13],"inconclusive: 61.1 µM [falling, single point]"
same,Potency,[4],active: 54.9 µM
same,Potency,[5],"inconclusive: 7.76 µM [rising, partial curve]"
Oc1cc(Cl)ccc1Oc1ccc(Cl)cc1Cl,Potency,[9],inconclusive: 29.8 µM [cytotoxic]
same,Potency,[14],"inconclusive: 33.5 µM [inhibitor, single point]"
same,Potency,[10],inconclusive: 14 µM [inhibitor]
same,Potency,[6],active: 11.2 µM
same,Potency,[3],active: 22.2 µM
same,Potency,[4],inconclusive: 56.2 µM
same,Potency,[5],inconclusive: 17.8 µM and inconclusive: 33.5 µM
CN1C[C@H](C(=O)N[C@]2(C)O[C@@]3(O)[C@@H]4CCCN4C(=O)[C@H](Cc4ccccc4)N3C2=O)C=C2c3cccc4[nH]cc(c34)C[C@H]21,Potency,[9],"inconclusive: 2.44 µM [cytotoxic, full curve]"
same,Potency,[14],"inconclusive: 26.6 µM [inhibitor, single point]"
same,Potency,[2],"inconclusive: 19 µM [inhibitor, partial curve] and active: 61.9 µM [cytotoxic]"
same,Potency,[11],"inconclusive: 30.8 µM [inhibitor, partial curve] and inconclusive: 25.4 µM [inhibitor]"
same,"activity change, negative = inhibition",[15],inconclusive: -26.2% [at 95 µM]
same,Potency,[7],"active: 16.8 µM and active: 27.4 µM and inconclusive: 18 µM [cytotoxic, partial curve]"
same,Potency,[12],"inconclusive: 61.4 µM [inhibitor, partial curve]"
same,Potency,[3],"inconclusive: 6.68 µM [cytotoxic, partial curve, poor fit] and inconclusive: 6.89 µM [cytotoxic, full curve]"
same,Potency,[16],"inconclusive: 26.6 µM [activator, partial curve] and inconclusive: 34.5 µM [activator, partial curve] and inconclusive: 25.4 µM [activator, single point]"
same,Potency,[4],"inconclusive: 0.982 µM [inhibitor, full curve]"
same,Potency,[5],active: 43.8 µM and inactive
